# Results from the supplement of paper PMC10441789.
# Some of the results follow. Antibody binding of pooled human sera (four to six donors per pool; dilution not stated) to peptides of the Trypanosoma cruzi antigen TSSA on microarrays. Quantile-normalised fluorescence in arbitrary units, mean of duplicate arrays; higher = more binding. No active / inactive call. The uninfected pools are read here as the healthy donors of the same country. The strongest signals lie near the top of the scale (about 60,000).
# Tests used:
# Experiment in all cases: antibody binding signal (normalised fluorescence) (arbitrary fluorescence units); higher = stronger serum antibody binding to peptide
# [1] = tested on: pooled sera of chronic Chagas disease patients, Argentina
# Procedure: (§1)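 Microarray of 15-residue peptides over residues 30-55 of Trypanosoma cruzi TSSAII, each with 1 to 10 substitutions at naturally variable positions, probed with one serum pool per country.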
# [2] = tested on: pooled sera of chronic Chagas disease patients, Bolivia
# Procedure: as §1
# [3] = tested on: pooled sera of chronic Chagas disease patients, Brazil
# Procedure: as §1
# [4] = tested on: pooled sera of chronic Chagas disease patients, Colombia
# Procedure: as §1
# [5] = tested on: pooled sera of chronic Chagas disease patients, Mexico
# Procedure: as §1
# [6] = tested on: pooled sera of chronic Chagas disease patients, USA
# Procedure: as §1
# [7] = tested on: pooled sera of uninfected people, Argentina
# Procedure: as §1
# [8] = tested on: pooled sera of uninfected people, Bolivia
# Procedure: as §1
# [9] = tested on: pooled sera of uninfected people, Brazil
# Procedure: as §1
# [10] = tested on: pooled sera of uninfected people, Colombia
# Procedure: as §1
# [11] = tested on: pooled sera of uninfected people, Mexico
# Procedure: as §1
# [12] = tested on: pooled sera of uninfected people, USA
# Procedure: as §1
Sequence,antibody binding signal [1],antibody binding signal [2],antibody binding signal [3],antibody binding signal [4],antibody binding signal [5],antibody binding signal [6],antibody binding signal [7],antibody binding signal [8],antibody binding signal [9],antibody binding signal [10],antibody binding signal [11],antibody binding signal [12]
TPPSGKDKKTATGGA,1710,370,450,620,26600,630,284,295,103,202,85.9,163
GKENKAATGEAPSQS,30100,12700,34500,10900,11900,31300,678,152,105,151,153,154
GTENKPAAGETPSQP,43800,6550,39100,517,1310,4740,285,1260,286,198,188,115
GKDKKPATGETPSQS,22100,4730,22400,1940,1980,17600,217,179,129,144,871,93.8
GTDKKAAAGGTPSQS,284,193,184,4820,396,1390,170,170,1210,139,302,117
PSGTEKKPAAGEAPS,34200,12800,23100,11300,11400,16200,736,601,828,394,805,725
KKAAAGGTPSPPGAS,214,213,188,2050,155,1170,192,134,567,158,69.9,238
KDKKPAAGETPSPSG,189,221,445,160,182,903,113,100,105,81.4,83.9,605
TDKKPATGGAPSPPG,1500,3140,1780,3270,1160,2120,478,1170,200,185,195,228
STPPSGTDNKPAAGE,50400,45400,47000,7270,24300,43300,2230,654,295,350,639,349
PPSGKENKAAAGGAP,5620,903,5460,2780,4400,3800,3110,1390,134,616,173,286
GTDNKTAAGGTPSQP,1260,977,22300,5210,409,1430,365,571,2690,192,2840,151
TPPSGTDNKTATGET,38300,33700,39600,1110,11200,7770,447,412,341,225,127,133
SGTDNKPAAGETPSQ,5730,1310,42500,2650,267,2810,107,670,284,272,350,194
TSSTPPSGTENKAAA,49300,38900,54300,402,3540,36900,5530,993,319,878,318,1360
STPPSGTDNKTAAGG,35300,43600,49100,945,15200,25600,1130,716,1620,268,424,473
KTAAGGTPSQPGASS,1120,236,311,7900,749,1120,484,130,290,135,990,156
NKTAAGETPSQPGAS,1090,7500,33800,480,418,1450,534,1760,530,661,304,1320
SGTENKAAAGETPSP,41700,8190,17300,428,417,5300,400,375,109,114,199,510
GTEKKPATGETPSPS,35800,19000,27500,2450,2840,23600,166,1320,1490,201,1920,2580
